Assay results reported in US20240254223A1 (NOVIMMUNE, published 2024).

T1: low-moderate affinity dimeric IL-2R (IL-2Rβ and IL-2Rγ) on HEK-Blue CD122/CD132 cells (UniProt P14784 27-551; P31785 23-369, limits assumed)
T1 sequence (looked up) 1: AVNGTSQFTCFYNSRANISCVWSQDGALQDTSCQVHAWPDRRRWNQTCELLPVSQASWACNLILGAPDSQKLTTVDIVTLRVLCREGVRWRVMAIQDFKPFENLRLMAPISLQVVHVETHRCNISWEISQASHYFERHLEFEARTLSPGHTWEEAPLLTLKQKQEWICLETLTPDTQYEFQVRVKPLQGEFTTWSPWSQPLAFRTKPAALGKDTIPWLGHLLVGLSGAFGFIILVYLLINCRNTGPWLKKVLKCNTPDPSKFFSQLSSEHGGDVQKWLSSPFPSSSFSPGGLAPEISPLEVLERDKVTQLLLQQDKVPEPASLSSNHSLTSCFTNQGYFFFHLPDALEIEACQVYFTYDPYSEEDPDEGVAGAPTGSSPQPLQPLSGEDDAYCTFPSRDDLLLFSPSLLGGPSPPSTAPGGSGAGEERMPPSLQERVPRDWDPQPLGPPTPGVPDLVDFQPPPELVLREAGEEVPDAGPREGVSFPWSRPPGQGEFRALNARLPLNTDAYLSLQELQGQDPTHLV
T1 sequence (looked up) 2: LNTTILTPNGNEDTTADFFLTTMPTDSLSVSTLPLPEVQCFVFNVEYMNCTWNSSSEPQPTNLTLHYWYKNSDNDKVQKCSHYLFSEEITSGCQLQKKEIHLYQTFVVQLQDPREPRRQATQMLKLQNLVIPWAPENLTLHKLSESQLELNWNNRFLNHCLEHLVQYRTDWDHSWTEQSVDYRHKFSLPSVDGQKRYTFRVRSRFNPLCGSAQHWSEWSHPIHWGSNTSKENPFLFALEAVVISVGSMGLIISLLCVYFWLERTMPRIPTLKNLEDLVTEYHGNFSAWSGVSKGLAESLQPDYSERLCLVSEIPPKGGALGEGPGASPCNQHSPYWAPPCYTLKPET

T2: high affinity trimeric IL-2R (IL-2Rα, IL-2Rβ and IL-2Rγ) on HEK-Blue IL-2 cells (UniProt P01589 22-272; P14784 27-551; P31785 23-369)
T2 sequence (looked up) 1: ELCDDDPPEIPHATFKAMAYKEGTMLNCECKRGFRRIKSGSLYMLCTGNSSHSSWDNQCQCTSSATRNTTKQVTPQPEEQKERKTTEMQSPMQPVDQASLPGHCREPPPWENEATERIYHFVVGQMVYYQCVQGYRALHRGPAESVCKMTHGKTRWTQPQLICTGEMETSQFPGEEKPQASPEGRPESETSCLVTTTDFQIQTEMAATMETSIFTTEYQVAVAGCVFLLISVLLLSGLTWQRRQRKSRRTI
T2 sequence (looked up) 2: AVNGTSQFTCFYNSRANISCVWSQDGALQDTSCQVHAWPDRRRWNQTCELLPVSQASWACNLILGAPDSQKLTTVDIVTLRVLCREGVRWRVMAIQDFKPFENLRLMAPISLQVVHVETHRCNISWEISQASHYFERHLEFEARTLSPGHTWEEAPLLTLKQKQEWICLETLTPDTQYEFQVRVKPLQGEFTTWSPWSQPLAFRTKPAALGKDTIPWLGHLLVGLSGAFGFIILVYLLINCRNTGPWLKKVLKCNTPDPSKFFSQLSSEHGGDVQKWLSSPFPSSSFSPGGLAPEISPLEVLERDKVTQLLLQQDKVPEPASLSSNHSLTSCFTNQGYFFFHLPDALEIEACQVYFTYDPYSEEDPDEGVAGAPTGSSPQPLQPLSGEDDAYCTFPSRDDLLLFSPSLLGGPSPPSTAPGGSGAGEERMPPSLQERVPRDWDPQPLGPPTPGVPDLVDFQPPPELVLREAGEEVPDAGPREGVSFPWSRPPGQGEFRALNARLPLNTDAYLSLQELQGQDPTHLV
T2 sequence (looked up) 3: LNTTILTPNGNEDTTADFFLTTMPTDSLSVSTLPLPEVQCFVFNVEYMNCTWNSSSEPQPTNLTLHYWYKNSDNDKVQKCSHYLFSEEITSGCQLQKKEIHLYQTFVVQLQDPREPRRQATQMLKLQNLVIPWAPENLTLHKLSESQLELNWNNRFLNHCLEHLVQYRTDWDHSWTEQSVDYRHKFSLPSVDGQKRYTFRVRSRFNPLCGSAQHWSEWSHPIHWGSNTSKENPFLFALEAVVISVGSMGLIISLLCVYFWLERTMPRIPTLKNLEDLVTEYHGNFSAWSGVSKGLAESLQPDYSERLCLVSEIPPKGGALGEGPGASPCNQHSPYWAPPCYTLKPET


How the values were obtained:
His-tagged human CD47 = target: T3, His-tagged human CD47 (human, UniProt Q08722 part only, limits assumed); assay: BLI, His-CD47 on HIS1K sensor, antibody 15 µg/mL
T3 construct: loaded on HIS1K biosensors at 2.5 µg/mL; also called target antigen; not shown: His tag

[1] = target: T1, low-moderate affinity dimeric IL-2R …; assay: cell-based or functional assay
[2] = target: T4, CD47 at the surface of Peak cells (human, UniProt Q08722); assay: flow cytometry, Peak cells; EC50 before / EC50 after cleavage
T4 construct: whole, on cells; also called cell surface CD47

[3] = target: T4, CD47 at the surface of Peak cells; assay: flow cytometry, Peak cells, before cleavage
[4] = target: T2, high affinity trimeric IL-2R (IL-2Rα, …); assay: cell-based or functional assay

Binder	Binding before cleavage (BLI) (His-tagged human CD47) [nm]	EC50 before cleavage IL-2, HEK Blue IL-2 βγ reporter assay [1] [pM]	EC50 ratio (BC/AC), HEK Blue IL-2 βγ reporter assay [1]	Binding recovery (BC/AC) [2]	EC50 [3] [pM]	EC50 before cleavage IL-2, HEK Blue IL-2 αβγ reporter assay [4] [pM]	EC50 ratio (BC/AC), HEK Blue IL-2 αβγ reporter assay [4]
pNOVI V2K K91_E8_IL-2Rα_1_238_IL-2_21_153_CM1 VKCK IL-2Rβ_1_239_CM1_VHCH (antibody, human IgG1, kappa, masked K91 fusion, uncleaved; also called n676; construct No 676) light: ELCDDDPPEIPHATFKAMAYKEGTMLNCECKRGFRRIKSGSLYMLCTGNSSHSSWDNQCQCTSSATRNTTKQVTPQPEEQKERKTTEMQSPMQPVDQASLPGHCREPPPWENEATERIYHFVVGQMVYYQCVQGYRALHRGPAESVCKMTHGKTRWTQPQLICTGEMETSQFPGEEKPQASPEGRPESETSCLVTTTDFQIQTEMAATMETSIFTTEGGGGSGGGGS[about 150 residues left out]GGGGSVHMPLGFLGPGGSDIQMTQSPSSLSASVGDRVTITCNVDQVIANWLNWYQQKPGKAPKLLIYAASSLQSGVPSRFSGSGSGTDFTLTISSLQPEDFATYYCQQMHPRAPKQFGQGTKVEIKRTVAAPSVFIFPPSDEQLKSGTASVVCLLNNFYPREAKVQWKVDNALQSGNSQESVTEQDSKDSTYSLSSTLTLSKADYEKHKVYACEVTHQGLSSPVTKSFNRGEC heavy: AVNGTSQFTCFYNSRANISCVWSQDGALQDTSCQVHAWPDRRRWNQTCELLPVSQASWACNLILGAPDSQKLTTVDIVTLRVLCREGVRWRVMAIQDFKPFENLRLMAPISLQVVHVETHRCNISWEISQASHYFERHLEFEARTLSPGHTWEEAPLLTLKQKQEWICLETLTPDTQYEFQVRVKPLQGEFTTWSPWSQPLAFRTKPAALGKDGGGGSVHMPLGFLGPGGS[about 120 residues left out][about 100 residues left out][human IgG1 Fc left out]	0.6	180	6	57	56700	280	6
pNOVI V2K K91_G3_IL-2Rγ_1_262_CM1_IL-2_21_153_CM1 VKCK_IL-2Rα_1_238_CM1_VHCH (antibody, human IgG1, kappa, masked K91 fusion, uncleaved; also called n870; construct No 870) light: LNTTILTPNGNEDTTADFFLTTMPTDSLSVSTLPLPEVQCFVFNVEYMNCTWNSSSEPQPTNLTLHYWYKNSDNDKVQKCSHYLFSEEITSGCQLQKKEIHLYQTFVVQLQDPREPRRQATQMLKLQNLVIPWAPENLTLHKLSESQLELNWNNRFLNHCLEHLVQYRTDWDHSWTEQSVDYRHKFSLPSVDGQKRYTFRVRSRFNPLCGSAQHWSEWSHPIHWGSNTSKENPFLFALEAGGGGSVHMPLGFLGPGGGGS[about 150 residues left out]GGGGSVHMPLGFLGPGGSDIQMTQSPSSLSASVGDRVTITCNVDQVIANWLNWYQQKPGKAPKLLIYAASSLQSGVPSRFSGSGSGTDFTLTISSLQPEDFATYYCQQMHPRAPKQFGQGTKVEIKRTVAAPSVFIFPPSDEQLKSGTASVVCLLNNFYPREAKVQWKVDNALQSGNSQESVTEQDSKDSTYSLSSTLTLSKADYEKHKVYACEVTHQGLSSPVTKSFNRGEC heavy: ELCDDDPPEIPHATFKAMAYKEGTMLNCECKRGFRRIKSGSLYMLCTGNSSHSSWDNQCQCTSSATRNTTKQVTPQPEEQKERKTTEMQSPMQPVDQASLPGHCREPPPWENEATERIYHFVVGQMVYYQCVQGYRALHRGPAESVCKMTHGKTRWTQPQLICTGEMETSQFPGEEKPQASPEGRPESETSCLVTTTDFQIQTEMAATMETSIFTTEGGGGSVHMPLGFLGPGGS[about 120 residues left out][about 100 residues left out][human IgG1 Fc left out]	0.3	260	10	170	219000	330	29
pNOVI V2K K91_IL-2 CM1_VKCK_IL-2Rα_CM1_VHCH (antibody, human IgG1, kappa, masked K91 fusion, uncleaved; also called n41; construct No 41) light: [about 150 residues left out]GGGGSVHMPLGFLGPGGSDIQMTQSPSSLSASVGDRVTITCNVDQVIANWLNWYQQKPGKAPKLLIYAASSLQSGVPSRFSGSGSGTDFTLTISSLQPEDFATYYCQQMHPRAPKQFGQGTKVEIKRTVAAPSVFIFPPSDEQLKSGTASVVCLLNNFYPREAKVQWKVDNALQSGNSQESVTEQDSKDSTYSLSSTLTLSKADYEKHKVYACEVTHQGLSSPVTKSFNRGEC heavy: ELCDDDPPEIPHATFKAMAYKEGTMLNCECKRGFRRIKSGSLYMLCTGNSSHSSWDNQCQCTSSATRNTTKQVTPQPEEQKERKTTEMQSPMQPVDQASLPGHCREPPPWENEATERIYHFVVGQMVYYQCVQGYRALHRGPAESVCKMTHGKTRWTQPQLICTGEMETSQFPGEEKPQASPEGRPESETSCLVTTTDFQIQTEMAATMETSIFTTEGGGGSVHMPLGFLGPGGS[about 120 residues left out][about 100 residues left out][human IgG1 Fc left out]	0.9	40	3	31	5500	70	4
pNOVI V2K K91_G4_IL-2Rγ_1_262_IL-2_21_153_CM1 VKCK_IL-2Rα_1_238_CM1_VHCH (antibody, human IgG1, kappa, masked K91 fusion, uncleaved; also called n880; construct No 880) light: LNTTILTPNGNEDTTADFFLTTMPTDSLSVSTLPLPEVQCFVFNVEYMNCTWNSSSEPQPTNLTLHYWYKNSDNDKVQKCSHYLFSEEITSGCQLQKKEIHLYQTFVVQLQDPREPRRQATQMLKLQNLVIPWAPENLTLHKLSESQLELNWNNRFLNHCLEHLVQYRTDWDHSWTEQSVDYRHKFSLPSVDGQKRYTFRVRSRFNPLCGSAQHWSEWSHPIHWGSNTSKENPFLFALEAGGGGSGGGGS[about 150 residues left out]GGGGSVHMPLGFLGPGGSDIQMTQSPSSLSASVGDRVTITCNVDQVIANWLNWYQQKPGKAPKLLIYAASSLQSGVPSRFSGSGSGTDFTLTISSLQPEDFATYYCQQMHPRAPKQFGQGTKVEIKRTVAAPSVFIFPPSDEQLKSGTASVVCLLNNFYPREAKVQWKVDNALQSGNSQESVTEQDSKDSTYSLSSTLTLSKADYEKHKVYACEVTHQGLSSPVTKSFNRGEC heavy: ELCDDDPPEIPHATFKAMAYKEGTMLNCECKRGFRRIKSGSLYMLCTGNSSHSSWDNQCQCTSSATRNTTKQVTPQPEEQKERKTTEMQSPMQPVDQASLPGHCREPPPWENEATERIYHFVVGQMVYYQCVQGYRALHRGPAESVCKMTHGKTRWTQPQLICTGEMETSQFPGEEKPQASPEGRPESETSCLVTTTDFQIQTEMAATMETSIFTTEGGGGSVHMPLGFLGPGGS[about 120 residues left out][about 100 residues left out][human IgG1 Fc left out]	0.2	280	12	178	459000	660	17
